# Laboratory results reported in patent US20230272055A1, “ANTI-MUTANT CALRETICULIN (CALR) ANTIBODIES AND USES THEREOF” (Incyte Corporation, priority 2021, published 2023).
# Where a chain is given by its changes, count along the chain named.
# B1: 44 (antibody)
# heavy: EVQLVQSGAEVKKPGSSVKVSCKASGGTFSSYAISWVRQAPGQGLEWMGGIIPIFGTANYAQKFQGRVTITADESTSTAYMELSSLRSEDTAVYYCASSPLRGSGWYWHYYYGMDVWGQGTTVTVSSASTKGPSVFPLAPSSKSTSGGTAALGCLVKDYFPEPVTVSWNSGALTSGVHTFPAVLQSSGLYSLSSVVTVPSSSLGTQTYICNVNHKPSNTKVDKRV[omitted - human IgG1 Fc]
# light: SYVLTQPPSVSAAPGKTARISCGGNNIRSKSVHWYQQKAGQAPVLVIYQDSKRPSGIPERFSGSNSGNTATLTISGTQAMDEADYYCQAWDSNTVVFGGGTKLTVLGQPKAAPSVTLFPPSSEELQANKATLVCLISDFYPGAVTVAWKADSSPVKAGVETTTPSKQSNNKYAASSYLSLTPEQWKSHRSYSCQVTHEGSTVEKTVAPTECS
# B2: 49 (antibody)
# heavy: B1 heavy
# light: SYELTQPPSVSVAPGKTARITCGGNNIRAKHVHWYQQKPGQSPVLVIYQDSKRPSGIPERFSGSNSGSTATLTISRVEAGDEADYYCQVWDSSTVVFGGGTKLTVLGQPKAAPSVTLFPPSSEELQANKATLVCLISDFYPGAVTVAWKADSSPVKAGVETTTPSKQSNNKYAASSYLSLTPEQWKSHRSYSCQVTHEGSTVEKTVAPTECS
# B3: 45 (antibody)
# heavy: B1 heavy
# light: SYVLTQPLSVSVAPGQTARITCGGNNIGRKSVHWYQQKPGQAPVLVIYRDSNRPSGIPERFSGSNSGNTATLTISRAQAGDEADYYCQVWDSSTVVFGGGTKLTVLGQPKAAPSVTLFPPSSEELQANKATLVCLISDFYPGAVTVAWKADSSPVKAGVETTTPSKQSNNKYAASSYLSLTPEQWKSHRSYSCQVTHEGSTVEKTVAPTECS
# B4: 48 (antibody)
# heavy: B1 heavy
# light: B1 light with A12V, S21T, R28G, A39P, S51R, N93S, V95A
# B5: 47 (antibody)
# heavy: B1 heavy
# light: B3 light with V3E, L8P, Q16K, N26K, R29T
# B6: 46 (antibody)
# heavy: B1 heavy with E1Q
# light: B1 light with V3E, A12V, S21T, A39P, I47V, A89V, N93S, V95A
# B7: 38 (antibody)
# heavy: EVQPVQSGAEVKKPGSSVKVSCKASGGTFSSYAISWVRQAPGQGLEWMGLVDPEDGETIYAEKFRGRVTITADTSTDTAYMELSSLRSEDTAVYYCATEESYGPWGQGTLVTVSSASTKGPSVFPLAPSSKSTSGGTAALGCLVKDYFPEPVTVSWNSGALTSGVHTFPAVLQSSGLYSLSSVVTVPSSSLGTQTYICNVNHKPSNTKVDKRV[omitted - human IgG1 Fc]
# light: DIQLTQSPSSLSASVGDRVTITCQASQDISNYLNWYQQKPGKAPKLLIYDASNLETGVPSRFSGSGSGTEFTLTISSLQPEDFATYYCQQLNSYPLTFGGGTKLEIKRTVAAPSVFIFPPSDEQLKSGTASVVCLLNNFYPREAKVQWKVDNALQSGNSQESVTEQDSKDSTYSLSSTLTLSKADYEKHKVYACEVTHQGLSSPVTKSFNRGEC
# Target: T1, recombinant MBP-mutCALR Type 1 fusion protein (Homo sapiens, UniProt P27797, DEL40-40)
# T1 construct: His6 (N); purchased Cepter (cepterbiopartners.com), custom made
# Test: Biacore SPR binding kinetics, Experiment 1
# Conditions: Biacore 8K, 25° C., 1:1 binding model
# Description: The amino acid sequence of recombinant MBP-mutCALR Type 1 fusion protein used in Experiments 1 and 2 is:
# Experiment 1: Recombinant MBP-mutCALR Type 1 fusion protein was custom made at Cepter (cepterbiopartners.com). Data for the interaction of antibodies with recombinant MBP-mutCALR Type 1 fusion protein were collected at 25° C. on a Biacore 8K instrument (Cytiva, Marlborough, Mass.), and all reagents were obtained from Cytiva unless otherwise specified. The experiments were conducted using Tris-buffered saline (pH 7.2), 0.005% Surfactant P20, 1 mM CaCl2) as running buffer. To prepare the capture surfaces, anti-human IgG (Fc) antibodies (Product #29234600) was amine-coupled onto a CM4 chip (Product #BR100534) under standard conditions using an Amine Coupling Kit (Product #BR100050). Anti-mutCALR antibodies were captured onto the chip surface by injecting over flow cell 2 only at a flow rate of 30 μL/min for 30 seconds. […] The kinetics parameters were obtained by applying 1:1 binding model to fit the data from multiple-cycle injection experiments using Biacore Insight Evaluation software.
Molecule,ka [M⁻¹ s⁻¹],kd [s⁻¹]
B1,263000,0.00101
B2,185000,0.000669
B3,214000,0.0011
B4,181000,0.000297
B5,213000,0.000772
B6,283000,0.00156
B7,1.28e+06,0.00268

# Test system: MPL-mutCALR cells (BaF3 cells stably expressing human MPL and human mutCALR)
# Test: Flow cytometry binding to cell surface MPL and mutCALR (GMFI, four parameter fit)
# Conditions: area under the curve of GMFI cell binding
# Description: To assess binding of CALR antibodies to cell surface CALR, parental BaF3 (DSMZ) cells or BaF3 cells stably expressing only human MPL or both human MPL (Uniprot Number: P40238-1) and human mutCALR Type 1 and Type 2 were used. On the day of the assay, cells were washed and resuspended in assay buffer. Approximately 200,000 cells/well were added to 96-well plates and stained with the indicated concentration of antibodies for 30 minutes on ice. Cells were then washed and stained with goat anti-human secondary conjugated to R-phycoerythrin (R-PE) (Jackson Immuno Research Laboratories) for 30 minutes on ice. The cells were then washed and analyzed by flow cytometry. Geometric Mean Fluorescence Intensity (GMFI) of cell binding was graphed and EC50, hill slope, and area under the curve (AUC) were determined after four parameter curve fitting using GraphPad Prism Software (version 7.04).
row,Molecule,MPL-mutCALR AUC
1,B1,22711
2,B5,26698
3,B6,28469

# Same assay, conditions: cell binding, GMFI, four parameter curve fitting
Molecule,MPL-mutCALR EC50 (μg/ml),MPL-mutCALR Hill Slope
B1,No Binding,No Binding
B2,,1.72
B3,Low Binding,Low Binding
B4,Low Binding,Low Binding
B5,No Binding,No Binding
B6,No binding,No Binding
B7,,0.45

# Test system: Ba/F3 cells transfected with MPL and mutCALR Type 1
# Test: Inhibition of cell proliferation, CellTiter-Glo 72 hours, mutCALR Type 1
# Format: cell-based
# Conditions: Ba/F3 engineered cells, high-throughput primary screening
# Description: To test the ability of anti-mutCALR antibodies to inhibit cell proliferation, engineered Ba/F3 cells transfected with MPL and mutCALR Type 1 were plated at 5,000 cells per well in RPMI 1640+2% FBS, antibodies added, incubated for 72 hours, and followed by assessment of cell viability using the CellTiter-Glo Luminescent Cell Viability Assay (Promega, Madison, Wis.) and Top Count (Perkin Elmer, Boston, Mass.) or Pherastar (BMG Labtech, Ortenberg, Germany) for luminescence quantification. Anti-mutCALR antibodies inhibit mutCALR-induced oncogenic cell proliferation in a dose-dependent manner in both the Ba/F3 engineered cells (FIG. 2).
# To test the ability of anti-mutCALR antibodies to inhibit oncogenic cell proliferation triggered by the Type 1 and Type 2 CALR mutations, Ba/F3 cells (DSMZ) were engineered to express MPL+mutCALR Type 1 (52 bp deletion, SEQ ID NO:320) or MPL+mutCALR Type 2 (5 bp insertion; SEQ ID NO:321). Cells were plated at 5,000 cells per well in RPMI 1640+2% FBS, antibodies added, incubated for 72 hours, and followed by assessment of cell viability using the CellTiter-Glo Luminescent Cell Viability Assay (Promega, Madison, Wis.) and Top Count (Perkin Elmer, Boston, Mass.) or Pherastar (BMG Labtech, Ortenberg, Germany) for luminescence quantification. Anti-mutant CALR antibodies show potency to inhibit mutCALR-induced oncogenic cell proliferation associated with both Type 1 and Type 2 mutations (FIG. 3).
row,Molecule,IC50 inhibition of cell proliferation [mg/L]
1,B1,2.8910
2,B2,0.2133
3,B3,0.6996
4,B4,0.1908
5,B5,0.5726
6,B6,0.2779
7,B7,1.9070

# Test system: Ba/F3-TPOR/mutCALR type 1 engineered cells
# Test: Cell proliferation with antibody and/or ruxolitinib, mutCALR Type 1
# Format: cell-based
# Conditions: log value, 72 hours
# Description: To test the ability of anti-mutCALR antibodies to potentiate the therapeutic response of the JAK1/2 inhibitor ruxolitinib, Ba/F3 cells were engineered to express MPL+mutCALR Type 1 (52 bp deletion) or MPL+mutCALR Type 2 (5 bp insertion) as described above. Cells were plated at 5,000 cells per well in RPMI 1640+2% FBS, treated with 50 nM of ruxolitinib and/or anti-mutCALR antibodies. Cells were incubated for 72 hours followed by assessment of cell viability using the CellTiter-Glo Luminescent Cell Viability Assay (Promega, Madison, Wis.) and Top Count (Perkin Elmer, Boston, Mass.) or Pherastar (BMG Labtech, Ortenberg, Germany) for luminescence quantification. Ruxolitinib used at a concentration of 50 nM inhibited the level of oncogenic cell proliferation by approximately 20% (dotted line).
row,Molecule,"Log IC50, Antibody alone [μg/mL]"
1,B7,−0.035

# Same assay, conditions: log value, with 50 nM ruxolitinib, 72 hours
row,Molecule,"Log IC50, Antibody + ruxolitinib [μg/mL]"
1,B7,0.542
